{
  "source": "the supplement of paper PMC6531468",
  "note": "The other results are listed elsewhere or left out. Read counts after selection give these values, which scatter widely. Scores sum up all selected molecules that hold the word; the word was not tested alone.",
  "data": [
    {"system": "IMP3 RRM1-2", "sequence (chain, as listed by the source)": "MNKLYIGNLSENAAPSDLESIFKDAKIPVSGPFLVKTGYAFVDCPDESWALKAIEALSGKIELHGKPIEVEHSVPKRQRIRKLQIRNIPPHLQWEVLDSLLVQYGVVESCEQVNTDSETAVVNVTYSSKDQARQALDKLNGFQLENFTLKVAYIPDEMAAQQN", "assay": "6-mer SELEX enrichment z-score vs GST control; IMP3 is the RNA-binding protein IGF2BP3; higher = more enriched by binding", "conditions": "construct: RRM1-2 (1-163); SELEX round: R2", "procedure": "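SELEX-seq with GST-tagged IMP3 RRM1-2 (Met1-Asn163) and an N40 RNA pool, round 2. 6-mer enrichment z-score normalised to GST SELEX. RNA written as DNA (T = U).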", "values": [
      {"sequence": "CTTTGG", "6-mer SELEX enrichment z-score": 0.358},
      {"sequence": "AGAACC", "6-mer SELEX enrichment z-score": -1.35},
      {"sequence": "CGATGT", "6-mer SELEX enrichment z-score": -0.386},
      {"sequence": "GTGGCT", "6-mer SELEX enrichment z-score": 0.289},
      {"sequence": "CCGCGA", "6-mer SELEX enrichment z-score": -0.942},
      {"sequence": "GGACAT", "6-mer SELEX enrichment z-score": 0.065},
      {"sequence": "ATATTA", "6-mer SELEX enrichment z-score": 0.164},
      {"sequence": "CGTAGT", "6-mer SELEX enrichment z-score": 0.175},
      {"sequence": "ATTACC", "6-mer SELEX enrichment z-score": -0.391},
      {"sequence": "CCGAAG", "6-mer SELEX enrichment z-score": -1.33},
      {"sequence": "AGGGTA", "6-mer SELEX enrichment z-score": 0.13},
      {"sequence": "ATGACA", "6-mer SELEX enrichment z-score": 0.019},
      {"sequence": "CATCGA", "6-mer SELEX enrichment z-score": 0.306},
      {"sequence": "TTGTTC", "6-mer SELEX enrichment z-score": 0.355},
      {"sequence": "AGTGTT", "6-mer SELEX enrichment z-score": 0.201},
      {"sequence": "CGGGCA", "6-mer SELEX enrichment z-score": 0.244},
      {"sequence": "AGGGAG", "6-mer SELEX enrichment z-score": -0.276},
      {"sequence": "ACTGAA", "6-mer SELEX enrichment z-score": -1.19},
      {"sequence": "CGCCAG", "6-mer SELEX enrichment z-score": -0.22},
      {"sequence": "GGAATC", "6-mer SELEX enrichment z-score": -0.071},
      {"sequence": "ACGTAC", "6-mer SELEX enrichment z-score": -0.551},
      {"sequence": "TTGATC", "6-mer SELEX enrichment z-score": 0.172},
      {"sequence": "GTAATG", "6-mer SELEX enrichment z-score": -0.37},
      {"sequence": "GCAATC", "6-mer SELEX enrichment z-score": 1.2},
      {"sequence": "TGGTAT", "6-mer SELEX enrichment z-score": 0.474},
      {"sequence": "GGAAAA", "6-mer SELEX enrichment z-score": -1.96},
      {"sequence": "CAAGTG", "6-mer SELEX enrichment z-score": -0.083},
      {"sequence": "TTACTC", "6-mer SELEX enrichment z-score": 0.288},
      {"sequence": "ACCGGC", "6-mer SELEX enrichment z-score": -0.206},
      {"sequence": "TATGTG", "6-mer SELEX enrichment z-score": 0.134},
      {"sequence": "CGAAAA", "6-mer SELEX enrichment z-score": -2.85},
      {"sequence": "GCGACC", "6-mer SELEX enrichment z-score": -0.417},
      {"sequence": "TCCCTC", "6-mer SELEX enrichment z-score": 0.166},
      {"sequence": "TCCTGC", "6-mer SELEX enrichment z-score": -0.049},
      {"sequence": "GGGCGT", "6-mer SELEX enrichment z-score": 0.309},
      {"sequence": "ATGTGA", "6-mer SELEX enrichment z-score": -0.63},
      {"sequence": "ATCCGG", "6-mer SELEX enrichment z-score": -0.303},
      {"sequence": "TATGTC", "6-mer SELEX enrichment z-score": 0.244},
      {"sequence": "AATGCC", "6-mer SELEX enrichment z-score": -0.962},
      {"sequence": "TGCGGT", "6-mer SELEX enrichment z-score": 0.295}
    ]}
  ]
}
